Results reported in the supplement of paper PMC3334620.
In all, about 33,000 sequences were measured (“E-score (-0.5 to 0.5)”: median about -0.016, highest 2% from about 0.32 on). The list shows a part of the results.

biological target: T1, Stp1 (UniProt B3LFK1); test: PBM E-score (8-mer binding enrichment) (E-score (-0.5 to 0.5)); higher = stronger / more preferred TF binding; most listed sequences are background and not binding sites; conditions: protein concentration: 200 nM; construct: GST-full length
T1 sequence: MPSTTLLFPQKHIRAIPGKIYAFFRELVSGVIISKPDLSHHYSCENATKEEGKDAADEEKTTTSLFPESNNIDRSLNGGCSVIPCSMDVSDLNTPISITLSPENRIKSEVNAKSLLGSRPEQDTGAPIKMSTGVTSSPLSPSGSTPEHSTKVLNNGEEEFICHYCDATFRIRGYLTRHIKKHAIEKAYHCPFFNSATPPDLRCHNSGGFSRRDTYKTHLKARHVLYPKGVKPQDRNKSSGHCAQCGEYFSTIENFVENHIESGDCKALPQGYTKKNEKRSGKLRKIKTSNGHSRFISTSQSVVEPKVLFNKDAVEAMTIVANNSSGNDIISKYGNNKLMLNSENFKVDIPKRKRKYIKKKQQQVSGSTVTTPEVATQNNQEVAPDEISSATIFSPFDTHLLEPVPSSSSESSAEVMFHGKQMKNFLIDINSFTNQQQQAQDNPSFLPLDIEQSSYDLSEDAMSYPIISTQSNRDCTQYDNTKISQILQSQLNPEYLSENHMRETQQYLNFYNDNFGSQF
Protocol: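 Universal 'all 10-mer' protein binding microarrays (Agilent AMADID 015681) probed with GST-tagged S. cerevisiae TFs (full-length or DBD) made by in vitro transcription/translation (PURExpress), about 100-200 nM. Bound TF was detected with fluorescent anti-GST. Each ungapped 8-mer (which stands for itself and its reverse complement) is scored by the PBM enrichment score (E-score), a modified Wilcoxon-Mann-Whitney statistic from -0.5 to +0.5, computed with the Universal PBM Analysis Suite. Scale: above 0.35 generally sequence-specific binding.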

Sequence | PBM E-score
CGCACAAC | -0.0295
ACCTTCGG | -0.124
ATCAGCCC | -0.181
CCATATTC | -0.0131
CAATGTCC | -0.216
GGGCCACC | -0.17
CTTCAGAA | 0.0658
CCCCACCC | -0.0823
CCCTACGC | -0.0574
GCCTGAAC | -0.198
AGGAAGGC | 0.0626
GCTATAAC | -0.0348
GTGTTTCA | 0.012
CTCGGCGA | 0.123
AAAGGAAA | 0.196
ATGTAACA | 0.208
GGGCCCAA | -0.146
CACGTGTC | -0.116
CGGGGGGC | -0.23
GGGATTGA | -0.0707
GCAGCAAA | -0.171
GATCCTCC | -0.268
ACTCTAAT | 0.024
ACTCCAAC | -0.0586
AGTTTTGA | 0.0682

Sequence | PBM E-score
AAATCTAA | 0.056
CAGTATGC | 0.0773
TATCTCGA | 0.0361
AGTGTAAA | 0.00911
CGCTTGGA | -0.0508
GCCTCACC | 0.327
GGCTCGAC | 0.0122
AGAGGCCT | -0.0752
ATCGATGG | -0.144
AAGGTTGC | -0.182
CGGTATAC | -0.246
GGTATGCA | -0.294
GTGCCAGA | -0.141
CGGGACAG | 0.00286
AGCGCCAA | -0.059
GTTGCTCA | 0.0145
GAGTTTCC | -0.113
ACAGAGTC | -0.0844
GTTACCAA | 0.1
AAAGAGCA | 0.02
ACTCACCT | -0.268
ACTCTAGG | -0.175
GAACTATA | 0.138
GTACGAAA | 0.167
ACGCGCGA | 0.105

Sequence | PBM E-score
AGTTATAT | 0.0872
AACTCATA | 0.0506
CCGAGAGA | -0.157
CGGACAGC | 0.132
CAAGGGGA | -0.141
TCAAATCA | 0.0147
CGAGTCTA | -0.269
AAAGGGTA | -0.0413
AAGCGCCC | 0.0315
CCATCACA | -0.146
AACTGATG | 0.141
CACGGATG | 0.15
ATTGCCTG | 0.0108
GAACATTA | -0.0121
AGGGCCTG | -0.411
AGCAACCA | 0.0168
CGGTGACC | -0.219
AAATCGGC | 0.194
AGTATTAG | 0.102
CTGCCCGA | -0.119
AAAAACCT | 0.00613
GGGTAAGA | -0.301
AACTCGCG | 0.17
ACTAGTCC | -0.0744
CTAATACC | -0.0185

Sequence | PBM E-score
ATTAGTTG | 0.195
GCCTACTA | 0.16
AGGGGACC | -0.296
CGCTTTGA | 0.00673
ATAATAAA | 0.206
TACCATCA | -0.208
ACTCGGTC | -0.161
TAGACTCA | -0.152
ACGCTTAA | 0.109
ACACCAGC | -0.171
GCGCAAGC | 0.0713
ACCGGTAT | -0.197
CGACGTAA | 0.0897
GTCCCCGA | -0.342
CGACTCAA | -0.124
ACTGCTAT | -0.00517
CACAGCAA | 0.296
CGATTACA | 0.0812
ATGCCAAA | 0.0153
ATCCTGAA | 0.179
AGACATCG | 0.00868
AAGGTGGA | -0.173
AATGGCGC | 0.253
CGGTAAAC | 0.0601
CTGGGTGA | -0.229

Sequence | PBM E-score
GCAACGCA | -0.106
ATCGTAAA | 0.161
GGCGTGTA | 0.0932
ACGTAGCT | -0.0696
GCAGCGCC | 0.33
ACTTTTTA | 0.157
TGCCCTAA | -0.0334
AAGATAAC | 0.0624
CGGTGTCC | -0.191
CTAAGTAC | 0.0791
AAGAGGAC | -0.148
CACATCAC | -0.044
TCAGACGA | 0.0806
AGCTGATA | 0.0196
AAAAAGAC | 0.0559
CGGGCCAA | -0.355
CACTAAGA | 0.0987
ATAGCTCA | -0.0693
AACATAGT | 0.0588
ATCCTGTC | 0.0801
GCATAAAC | 0.172
CGGTACTC | -0.096
ATGGTCCC | -0.3
GACATTGC | 0.0112
ATATTTAA | 0.248

Sequence | PBM E-score
CACCTTTC | -0.138
TCACCCGA | -0.121
AAGAGCGG | 0.0636
AGAGCAAT | -0.0766
CGGGCCGA | -0.167
GGTTGTAA | 0.0757
TCCTAGCA | -0.114
CCGAATGC | 0.219
TTCAAGAA | 0.146
AGGGAAGC | -0.202
TCGAGAAA | -0.00991
AGTCAGGA | -0.197
AGAAAAAG | 0.0202
CTGCCAAG | -0.212
GAAGGCCC | -0.171
CCTTCCCG | -0.114
GCGGGGAA | -0.00444
AGTTAAGG | -0.0459
ATCGCGGG | -0.168
AGTCTGAG | -0.161
ACTGCTCG | -0.0391
CTATTTAA | 0.0116
TAGGAATA | -0.0335
ACATAGCA | 0.0267
GTCTTTAA | 0.0478

Sequence | PBM E-score
CCGTATAG | 0.188
GCAGAAGA | 0.0471
AGACATAA | 0.0682
CCAGTACG | 0.0588
CTACGTGC | 0.0735
ATTTTATG | 0.0902
GTCGCTTA | 0.0681
GTGCCCTA | 0.218
AATCCCAG | -0.0827
CTAGCGAC | -0.134
TATCGGAA | 0.0528
AGTCCATC | -0.179
GCAGTATA | 0.0785
GAGTACGA | 0.0292
GCCATGGA | -0.147
TCGGCTCA | -0.0668
ACCTGGCT | -0.234
AACATGAC | 0.00759
CGTCGCGA | 0.165
GTGGACCA | -0.0846
AATGTTCA | -0.00134
CAAGAAGG | -0.116
